According to the RNAGym collection of RNA variant scans (doi:10.1073/pnas.2313332121):
Variants at the floor of the assay are shown more often than the library holds them.

B1: TPR 5TU (parent)
chain: GGAUCUUCUCGAUCUAACAAAAAAGACAAAUCUGCCACAAAGCUUGAGAGCAUCUUCGGAUGCAGAGGCGGCAGCCUUCGGUGGCGCGAUAGCGCCAACGUUCUCAACUAUGACACGCAAAACGCGUGCUCCGUUGAAUGGAGUUUAUCAUG

Variants of: B1
Assay: polymerase ribozyme fitness, log enrichment relative to wild type (log ratio); higher = more active; in vitro selection for triplet polymerase activity
How it was run: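 For each subunit of a heterodimeric triplet polymerase ribozyme, a mutant library was built by PCR and transcribed, then taken through a single in vitro selection round in triplicate. Selection involved annealing to a biotinylated primer, the partner subunit and triplets, incubation frozen at −7 °C, gel excision of extended constructs, capture on streptavidin beads and RT-PCR. Genotypes were retained after Illumina sequencing of inputs and outputs only with ≥10 input reads and ≥1 read in each output. Fitness is defined as the logarithm of a genotype's enrichment relative to wild-type enrichment, using inverse-variance-weighted averages across replicates, with the logarithm taken to base 2.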

Going from GGAUCUUCUCGAUCUAACAAAAAAGGCAAAUCUGCGACAAAGCUUGAGAGCAUCUUCGGAUGCAGCGGCGGCAGCCUUCGGUGGCGCGAUAACGCCAACGUUCUCAACUAUGACACGCAAACCGCGUGCUCCGUUGAAUGGAGUUUAUCAUG to GGAUCUUCUCGAUCUAACAAAAAAGGCAAAUCUGCCACAAAGCUUGAGAGCAUCUUCGGAUGCAGAGGCGGCAGCCUUCGGUAGCGCAAUAGCUCCAACGUUCUCAACUAUGACACGCAAAACGCGUGCUCCGUUGAAUGGAGUUUAUGAUG, the “polymerase ribozyme fitness (log ratio)” value rises from no more than -4.2 to -4.19.

GGAUCUUCUCGAUCUAACAAAAAAGGCAAAUCUGCCACAAAGCUAGAGAGCAACUUCGGAUGCAGAGGCGGCAGCCUUCGGUGGAGCGAUAGCGCUAACUUACUCAACUAUGACAUGCAAAACGCGUGCUCCGUUGAAUGGAGUUUAUCGUG and GGAUCUUCUCGAUCUAACAAAAAAGUCAUAUCUGCCACAAAGCUUGAGAGCUUCUUCGGAUGCAGAGGCGGCACCCUUCGGUGGCGCGAUAGCGCCAACGUUCUCAACUAUGACACGGAAAACGCGUGCUCCGUUGAAUGGAGUUUAUCAUG cannot be ordered by “polymerase ribozyme fitness (log ratio)” value: no more than -4.2 for the first, no more than -4.2 for the second.

GGAUCUUCUCGAUCUAACAAAAAAGUCUAAUCUGCCACAAAGCUUGAGAGCAUCUACGGAUGCAGAGGCGGCAGCCUUCGGUGCCGCCGUAGCGCCAACGUUCUCCACUAUGACACGCAAAACGCGUGCUCCGUUUAAUGGAGUUUAUGAUG and GGAUCUUCUCGAUCUAACAAAAAAGGCAAAUCUGCCACAAAGCUUGAGAGCAUCGUCGGAUGCAGAGGCGGCAGCCUUCGGUGGCGAGAUAGCGCCAACGUUCUCAACUAUGACUCGUAAAACGCGUGCUCCGUUGAAUGGAGUUUAUGAUG cannot be ordered by “polymerase ribozyme fitness (log ratio)” value: no more than -4.2 for the first, no more than -4.2 for the second.

GGAUCUUCUCGAUCUAACAAAAAAGGCAAAUCUGCCACAAAGCAUGAGAGCAUCUUAGGAUGCAGAGGCGGCAGCCUUCGGUAGCGCGAUAGCGCCUACGUUCUCAACUAUGACACGGAAAACGCGUGCUCCGUUGAAUGGAGUUUAUCAUG and GGAUCUUCUCGAUCUAACAAAAAAGGCAAAUCUGCCACAAAGCUUGAGAGCAUCACCGGAUGCAGAGGUGGCAGCCUUCGGUGGCGAGAUAGCGCCAACGUUCUCAACUAUGACACGCAAAACGCAUGUUCCGUUGAAUGGAGUUUAUCAUG cannot be ordered by “polymerase ribozyme fitness (log ratio)” value: no more than -4.2 for the first, no more than -4.2 for the second.

GGAUCUUCUCGAUCUAACAAAAAAGUCAGAUCUGCGACAAAGCUUGAGAGUAUCUUCGGAUGCAGAGGCGGCAGCCUUCGGUGGCGCGAUAGCGCCAACGUUCUCAACUAUGACACGCAAAACGCGUGCUCCGUUGAAUGGAGUUUAUCAUG and GGAUCUUCUCGAUCUAACAAAAAAGGCAAAUCUGCCACAAAGCUUGAGAGCAUCUUCGGAUGCACAGGCGGUAGCCUUCGGUGGCGCGAUAGCGCCAACGUUCUCAACUAUGACACGCAGAACGCGUGCUCCGUUGAAUGGAGUUUAUCAUG cannot be ordered by “polymerase ribozyme fitness (log ratio)” value: no more than -4.2 for the first, no more than -4.2 for the second.

GGAUCUUCUCGAUCUAACAAAAAAGGCAAAUCUGCCACAAAGCUUGAGAGCAUCUUCGGAUGCAGAGGCGGCAGCCUUCGGUCGCGCGAUAGCGCCAACGUUAUCAACUAUGACAUGCAAAACGCGUGCUCCGUUGAAUGGAGUUUAUCAUG and GGAUCUUCUCGAUCUAACAAAAAAGGAAAAUCUGCCACAAAGCUUGAGAGCAUCUUCGGAUGCAGAGGCGGCGGCCUUCGGUGGCGGGAUAGCGCCAACGUUCUCAACUAUGACACGCAAAACGUGUGCUCCGUUGAAUGGAGUUUAUCAUG cannot be ordered by “polymerase ribozyme fitness (log ratio)” value: no more than -4.2 for the first, no more than -4.2 for the second.

GGAUCUUCUCGAUCUAACAAAAAAGGCAAAUCUGCCACAAAGCUUGAGAGCAUCAUCGGAUGCAGAGGCGGCAGCCUUCGGGGGCGCGUGAGCGCCAACGUUCUCGACUAUGACACGCAAAACGCGUGCUCCGUUGAAGGGAGUUUAUCAUG and GGAUCUUCUCGAUCUAACAAAAAAGGCAAAACUGCCACAAAGCUUGAAAGCAUCUUCGGCUGCAGAGGCGGCAGCGUUCGGUGGCGCGAUAGCGCCAACGUUCUCACCUAUGACACGCUAAACGCGUGCUCCGUUGAAUGGAGUUUAUCAUG cannot be ordered by “polymerase ribozyme fitness (log ratio)” value: no more than -4.2 for the first, no more than -4.2 for the second.

GGAUCUUCUCGAUCUAACAAAAAAGGCAAAUCUGCCACAAAGCUUGAGAGCAUCUUCGGAUGCAGAGGCGGUAGCCUUCGGUGGCGCGAUAGCGCCAACGUUCUCAACAAUGACAAGCAAAACGCGUGCUCCGUUGAAUGGAAUUUAUCAUG and GGAUCUUCUCGAUCUAACAAAAAAGGCAAAUCUGCCACAAAGCUUGAGAGUAUCAUCGGAGGCAGAGGCGGCAGCCUUCGGUGGCGCGAUAGCGCCAACGUUCUCAACUAUGACACGCAAAACGCGUGCUCCGCUGAAUGGAGGUCAUCAUG cannot be ordered by “polymerase ribozyme fitness (log ratio)” value: no more than -4.2 for the first, no more than -4.2 for the second.

GGAUCUUCUCGAUCUAACAAAAAAGGCAAAUCUGCCACAAAGCUUGAGAGCAUCUUCAGAUGCAGAGGCGGCAGCCUUCGGUGGCGCGAUAGCGCCAACGUUCUGAACUAUGACACCCAAAACGCGGGCUCCGUUGAAUGGAGUUUAUCAUG and GGAUCUUCUCGAUCUAACAAAAAAGGCAAAUCUGCCACAAAGCUUGAGAGCAUCUUCGGAUGCAGAGGCGGCAGCGUUCGGUGGCGAGAUAGCGCCAACGUUCUCAACUAUGACACGCAAAACGGGUGCUCCGGUGAAUGGAGUUUAUCAUG cannot be ordered by “polymerase ribozyme fitness (log ratio)” value: no more than -4.2 for the first, no more than -4.2 for the second.

In the case of GGAUCUUCUCGAUCUAACAAAAAAGGCAAAUCUGCCACAAAGCUUGAGAACAUCUUCGGAAGCAGAGGCGGCAGCCUUCGGUGGCGCGAUAGCGCCAAUGUUCUCAACUAUGACACGCAAAACGCGUGCGCCGUUGAAUGAAGUCUAUCAUG, the “polymerase ribozyme fitness (log ratio)” value is reported as no more than -4.2.
